Where “and” joins values, the source holds several entries; their conditions need not be identical. Identical values can stand only once. In all, about 420,000 compounds went through this assay and about 64,000 (15%) were called active. Inconclusive results, whose numbers are uncertain, are shown with a selection of clear calls. Calls follow the shape of the dose curve; as a rule, active = well fitted inhibition curve with a large enough effect; inconclusive = small, poorly fitted or top-dose-only effect; inactive = flat fitted curve, though single readings scatter. Where the call is inconclusive, the potency comes from a doubtful curve fit.
Assay: qHTS for Inhibitors of human tyrosyl-DNA phosphodiesterase 1 (TDP1): qHTS in cells in absence of CPT; also: nearly all actives have a fitted effect of over 55% in size
Conditions: DT40 Tdp1-/- hTDP1 cells, no CPT, ATP luminescence, 48 h; activity change, negative = growth inhibition: at 46.2 µM (top of the series)
Summary of the method: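 Growth of hTDP1-complemented DT40 Tdp1-knockout cells is measured by ATP luminescence after at least 48 hr compound exposure at 37 °C, with DMSO substituting for the 20 nM CPT used in the parallel screen.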
% is scaled to controls: 0 for no effect and ±100 for the full control effect; potency is read from the fitted curve at half-maximal effect; tags tell the direction and shape of the fitted curve.

Structure (SMILES)	activity change, negative = growth inhibition	Potency
COc1ccc(-c2noc(COc3ccc4ccccc4c3Br)n2)cc1OC	inactive: -12.6%	–
CCCCc1nc(SCC(=O)N2CCCC2)c2c(=O)n(C)c(=O)n(C)c2n1	–	inconclusive: 23.1 µM [inhibitor, single point]
O=C(N1CCN(c2ccccc2)CC1)C12CC3CC(CC(C3)C1)C2	inconclusive: -33.3% [inhibitor]	–
COc1cc2c(cc1NC(=S)Nc1cccc(C)c1)oc1ccccc12	–	inconclusive: 35.5 µM [inhibitor, single point]
C=CCn1c(SCC(=O)c2c(N)n(C)c(=O)n(C)c2=O)nc2sc(CC)cc2c1=O	–	inconclusive: 8.2 µM [inhibitor, partial curve]
CCOC(=O)c1c(C)oc2ccc(OCc3cc(C(=O)OC)oc3C)cc12	–	active: 13 µM
Cc1ccc(C(=O)N(C)CCOc2ccccc2)cc1S(=O)(=O)N1CCOCC1	–	inconclusive: 25.9 µM [inhibitor, single point]
O=C(NCc1ccccc1Cl)c1ccc(-c2ccccc2)cc1	–	inconclusive: 20.6 µM [inhibitor, single point]
CCOC(=O)/C=C/c1ccc2c(c1)S(=O)(=O)N(c1cccc(OC)c1)[C@H]2CC(=O)OCC	–	inconclusive: 15.8 µM [inhibitor, single point] and inconclusive: 29.1 µM [inhibitor, single point]
COc1ccccc1N1CCN(S(=O)(=O)CCNC(=O)Cc2ccc(F)cc2)CC1	–	inconclusive: 16.4 µM [inhibitor, single point]
Cc1cc(C(=O)NC2CCCCC2)c(C)n1-c1ccc(F)cc1	–	inconclusive: 18.4 µM [inhibitor, single point]
Cc1nn(CCCC(=O)Nc2cc(Oc3ccc(F)cc3)cc([N+](=O)[O-])c2)c(C)c1[N+](=O)[O-]	–	inconclusive: 18.4 µM [inhibitor, single point]
CCOC(=O)c1cccc(NC(=O)c2ccc3snnc3c2)c1	–	active: 18.4 µM
CC[C@@H](C)C(NC(=O)OC(C)(C)C)c1cn([C@@H](CCC(=O)OC(C)(C)C)C(=O)N2CCN(C(=O)OC(C)(C)C)CC2)nn1 (stereo partly drawn)	–	active: 14.6 µM
Cc1ccc2c(c1)N(CC(=O)OC(CC(C)C)C(=O)NC1CCCC1)C(=O)CO2 (stereo not drawn)	–	inconclusive: 29.1 µM [inhibitor, single point]
Cc1ccc(C)c(NC(=O)Cn2cnc3nc4c(cc3c2=O)CCCC4)c1	–	inconclusive: 11.6 µM [inhibitor, single point]
O=C(NCc1cccnc1)c1cnc2ccccc2n1	inactive: -20.8%	–
O=C(Nc1ccc2oc(=O)ccc2c1)c1ccc(-c2cccc(Cl)c2)o1	–	inconclusive: 7.31 µM [inhibitor, partial curve]
COC(=O)c1nn(-c2nc(-c3ccc(OC)c(OC)c3)cc(C(F)(F)F)n2)cc1[N+](=O)[O-]	–	inconclusive: 5.8 µM [inhibitor, partial curve]
Cc1cccc(N(CC(=O)NCc2ccc(F)cc2)C(=O)c2csnn2)c1C	–	inconclusive: 29.1 µM [inhibitor, single point]
CC1(C)c2ccccc2N2CC(=O)N[C@@]21/C=C/C=C/c1ccccc1	–	inconclusive: 20.6 µM [inhibitor, single point]
COc1ccc(-c2c(C)sc(NC(=O)c3ccnn3C)c2C#N)cc1	–	inconclusive: 16.4 µM [inhibitor, partial curve]

Structure (SMILES)	activity change, negative = growth inhibition	Potency
COCCCN1C(=O)C(CC(=O)NCC2CCCCC2)CC(C(=O)N(C(C)C)C(C)C)=C1C (stereo not drawn)	–	inconclusive: 29.1 µM [inhibitor, single point]
CCN(CC)C(=O)C(=O)c1c(-c2ccccc2)[nH]c2ccccc12	–	inconclusive: 13 µM [inhibitor, partial curve, poor fit]
CCc1ccc(-n2c(N3CCN(c4cccc(C)c4C)CC3)nc3ccccc3c2=O)cc1	–	inconclusive: 29.1 µM [inhibitor, single point]
CCOC(=O)C1=C(c2ccccc2)Nc2ncnn2C1c1cccc(OC)c1OC (stereo not drawn)	–	inconclusive: 23.1 µM [inhibitor, single point]
O=C(O)CCC(=O)N1CCN(c2nc(-c3ccccc3)c3ccccc3n2)CC1	inactive: -17.4%	–
Cc1nc2ccn(Cc3cccnc3)c(=O)c2cc1C(=O)N1CCN(c2ccccc2)CC1	inactive: -0.692%	–
Cc1ccccc1-c1cc(C(=O)N2CCCC2)c2ccccc2n1	–	inconclusive: 29.1 µM [inhibitor, single point]
Cc1cccc(C(=O)NCC(=O)N2CCN(S(=O)(=O)c3ccc4c(c3)OCCO4)CC2)c1	inactive: 8.06%	–
Cc1ccc(S(=O)(=O)CCC(=O)N2CCc3ccccc32)cc1	inactive: 6.54%	–
CC(=O)Nc1c2c(nn1-c1ccccc1)CSC2	inactive: 0.66%	–
Cc1ccc(CS(=O)(=O)CC(C)(O)c2ccc(Cl)cc2)cc1 (stereo not drawn)	inactive: -4.32%	–
CCN=C1S/C(=C\c2sccc2C)C(=O)N1CC	–	inconclusive: 29.1 µM [inhibitor, single point]
COc1ccc(NC(=O)c2cc([N+](=O)[O-])nn2Cc2ccccc2)c(C)c1	–	inconclusive: 13 µM [inhibitor, partial curve]
CCc1ccc2nc(/N=C(\N)NC(=O)c3ccccc3)nc(C)c2c1	–	active: 16.4 µM
COc1ccccc1NC(=O)COC(=O)Cn1cnc2c1c(=O)n(C)c(=O)n2C	inactive: -11.2%	–
COc1ccccc1C(=O)Nc1nc(-c2ccc(Br)cc2)ns1	–	inconclusive: 18.4 µM [inhibitor, single point]
COc1cc(C(=S)N2CCC(C(N)=O)CC2)ccc1O	–	inconclusive: 29.1 µM [inhibitor, single point]
COc1ccc(OCCCC(=O)N(CCC2=CCCCC2)c2c(N)n(Cc3ccccc3)c(=O)[nH]c2=O)cc1	–	inconclusive: 32.6 µM [inhibitor, single point]
O=S(=O)(c1ccccc1)N1CCC(O)(CN2CCN(c3ccccc3)CC2)CC1	inactive: -11.6%	–
Cc1ccc(Nc2nc(N)nc(CSc3nnc(-c4ccncc4)o3)n2)cc1	inactive: -13.6%	–
Cc1ccc(NC(=S)NC(C)CCc2ccccc2)cc1C (stereo not drawn)	–	inconclusive: 29.1 µM [inhibitor, single point]
